Reference: PubChem BioAssay AID686978 (National Center for Advancing Translational Sciences (NCATS), 2013)
Values joined by “and” are separate entries in the source; they are usually repeats but may differ in a detail not shown here. Equal values may be shown once. The whole screen tested about 420,000 compounds, of which about 64,000 (15%) were called active. This list was built around the results that the source calls inconclusive (neither active nor inactive); the mix of calls is not that of the screen. Calls come from the whole dose curve; as a rule, active = well fitted inhibition curve with a large enough effect; inconclusive = small, poorly fitted or top-dose-only effect; inactive = flat fitted curve, though single readings scatter. Where the call is inconclusive, the potency comes from a doubtful curve fit.

experiment: qHTS for Inhibitors of human tyrosyl-DNA phosphodiesterase 1 (TDP1): qHTS in cells in absence of CPT; conditions: DT40 Tdp1-/- hTDP1 cells, no CPT, ATP luminescence, 48 h; activity change, negative = growth inhibition: at 46.2 µM (top of the series); note: nearly all actives have a fitted effect of over 55% in size
Outline: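 Growth kinetics read by CellTiter-Glo luminescence after ≥48 hr at 37 °C. Cells: DT40 Tdp1-/- stably carrying human TDP1, 400 per well, compound exposure in the absence of CPT (DMSO vehicle).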
% is set by controls: 0 for no effect and ±100 for the full control effect; potency is the fitted concentration of half-maximal effect; tags give direction and shape of the fitted curve.

SMILES	Potency	activity change, negative = growth inhibition
N#C/C(=C\c1cccnc1)c1ccccn1	inactive	–
CCc1ccc(Nc2ncnc3nc[nH]c23)cc1	inactive	–
CN(C)S(=O)(=O)c1cccc(NC(=O)COC(=O)/C=C/c2ccc3c(c2)OCO3)c1	inconclusive: 32.6 µM [inhibitor, partial curve, poor fit]	–
CN(C)S(=O)(=O)c1cccc(NC(=O)c2ccc(N3CCOCC3)c([N+](=O)[O-])c2)c1	inconclusive: 29.1 µM [inhibitor, single point]	–
Cc1ccc(Nc2nc(C)cc(C)c2C(N)=O)cc1	inconclusive: 9.2 µM [inhibitor, partial curve]	–
Cc1c(Cl)cnc(NC(=O)COC(=O)Cc2coc3ccc4ccccc4c23)c1Cl	inconclusive: 29.1 µM [inhibitor, single point]	–
CCc1nnc2c(Nc3ccccc3Br)nc3ccccc3n12	inconclusive: 3.66 µM [inhibitor, partial curve]	–
O=S(=O)(Nc1ccc(-c2ccc(NS(=O)(=O)c3ccccc3)cc2)cc1)c1ccccc1	active: 23.1 µM	–
COc1ccccc1NS(=O)(=O)c1ccc(NC(=O)Cc2cccs2)cc1	inconclusive: 4.61 µM [inhibitor, full curve, poor fit]	–
COc1cccc(N2CC(C)Cn3c2nc2c3c(=O)n(CCN3CCOCC3)c(=O)n2C)c1 (centres undefined)	inactive	–
COc1cc(CNCCCN2CCOCC2)cc(Cl)c1OCC(=O)NC(C)(C)C	inconclusive: 29.1 µM [inhibitor, single point]	–
CCc1cccc(NS(=O)(=O)c2ccc3c(c2)N(CC(=O)OC)C(=O)CS3)c1	inconclusive: 20.6 µM [inhibitor, single point]	–
COc1c(S(=O)(=O)NCCCN2CCOCC2)ccc(Cl)c1Cl	inactive	–
COc1ccccc1N1CCN(C(=O)CNS(=O)(=O)c2ccc(Br)s2)CC1	inconclusive: 18.4 µM [inhibitor, single point] and inconclusive: 20.6 µM [inhibitor, single point]	–
CCN(CC(=O)Nc1ccc(N2CCOCC2)cc1)Cc1nc2ccccc2c(=O)[nH]1	–	inconclusive: -31.1% [inhibitor]
CCOC(=O)N1CCC2(CC1)OC(=O)C(C)=C2C(=O)NCc1ccccc1OC	inconclusive: 18.4 µM [inhibitor, single point]	–
Cn1cnc(S(=O)(=O)N2CCC(C(=O)Nc3ccc(Cl)c(C(F)(F)F)c3)CC2)c1	active: 13 µM	–
Cc1cc(N=NC(=O)c2ccccc2)ccc1O	inconclusive: 13 µM [inhibitor, partial curve]	–
Cc1ccc(NS(=O)(=O)c2cc(C(=O)NCc3ccccn3)ccc2Cl)cc1C	inactive	–
CC(Oc1cccc(Cl)c1)C(=O)N1CCN(c2ncccn2)CC1 (centres undefined)	inactive	–
COc1cc(C(=O)OCC(=O)N2CCNC2=O)cc(Cl)c1OC	inactive	–
CC(C)[C@H]1CC[C@@H](C)C[C@H]1O	inactive	–

SMILES	Potency	activity change, negative = growth inhibition
CCC(C)N1C(=S)SC(C)(C)C1N(O)C(=O)NC1CCCCC1 (centres undefined)	inconclusive: 29.1 µM [inhibitor, single point]	–
CCCn1cc(S(=O)(=O)c2cccc(Cl)c2)c(=O)c2cc(F)c(N3CCCC3)cc21	inconclusive: 29.1 µM [inhibitor, single point]	–
O=[N+]([O-])c1cccc(OCCN2CCC(Cc3ccccc3)CC2)c1	inconclusive: 25.9 µM [inhibitor, single point]	–
Cc1cc(Cl)ccc1OCC(=O)N(Cc1ccc(N(C)C)cc1)C1CCS(=O)(=O)C1 (centres undefined)	inconclusive: 29.1 µM [inhibitor, single point]	–
COc1ccc(C(=O)N/N=C(\C)c2ccc3c(c2)C2C=CCC2C(c2ccccc2)N3)cc1 (centres undefined)	active: 14.6 µM	–
COc1ccc(C2c3[nH]c4ccccc4c3CCN2C(=O)c2ccc(=O)n(C)n2)c(F)c1 (centres undefined)	inconclusive: 29.1 µM [inhibitor, single point]	–
Cn1c(=O)oc2cc(S(=O)(=O)Nc3ccc(Cl)cc3)ccc21	inactive	–
COc1ccc(OCCN2CCC(C(=O)NC(c3ccc(Cl)cc3)c3cccnc3)CC2)cc1 (centres undefined)	inconclusive: 29.1 µM [inhibitor, single point]	–
COc1ccc(C(C)=O)cc1CSc1nnc(Nc2ccc(C)cc2C)s1	inconclusive: 23.1 µM [inhibitor, single point]	–
COc1ccc(-c2ccc(OC(=O)NC3CCS(=O)(=O)C3)cc2)cc1 (centres undefined)	active: 8.2 µM	–
CN(CCc1ccccc1)C(=O)c1ccc(NC(=O)Cc2ccc(NC(=O)C3CCN(C(=O)CCc4ccccc4)CC3)cc2)cc1	active: 7.31 µM	–
Cc1cccc(C(C)C)c1NC(=O)c1ccc2c(c1)CCCN2S(C)(=O)=O	inactive	–
CCCCCCCCCC(=O)N[C@@H]1c2cc(OC)c(OC)cc2C[C@H]1O	active: 16.4 µM	–
CCCOc1ccc(CNC(=O)C2CCN(C(=O)N3CCOc4ccccc43)CC2)cc1	inconclusive: 18.4 µM [inhibitor, single point]	–
CN1OC[C@@H]2CN(S(=O)(=O)c3ccccc3)[C@H](c3ccc(N4CCCCC4)cc3)C[C@@H]21	inconclusive: 29.1 µM [inhibitor, single point]	–
COC(=O)C1=C(C)N(Cc2ccccc2)C(=NCc2ccc(OC)cc2)N[C@H]1c1ccccc1	active: 8.2 µM	–
Cc1ccc(CN2CCC(C)(Oc3cccc(Cl)c3)C2)cc1 (centres undefined)	inconclusive: 29.1 µM [inhibitor, single point]	–
O=C(CSCc1cnn(-c2ccccc2)c1-n1cccc1)N1CCN(Cc2ccccc2)CC1	active: 13 µM	–
Cc1ccc(NC(=O)CSc2nccn2C2CCCC2)cc1Cl	inconclusive: 29.1 µM [inhibitor, single point]	–
COc1ccc(CCN2CCCn3c2nc2c3c(=O)n(CC(N)=O)c(=O)n2C)cc1OC	inactive	–
CCOC(=O)c1cc(-c2ccc(C)cc2)n(CC(=O)Nc2ccc(OC)cc2OC)c1C	inconclusive: 29.1 µM [inhibitor, single point]	–
Nc1nc(SCCO)[nH]c(=O)c1NC(=O)c1ccco1	inactive	–
